In paper PMC12136788:
The list shows a part of the results.

B1: chr17:57974666:57974767:-|CDS|ENSG00000136451|msi1|total|mutant (ssRNA)
RNA: GGGAGUUCUACAGUCCGACGAUCGAGCAUGAGAAGUCCAGUAAAUGUUUCAAGUGCAGUUAACAUAACCAGCCCAAUGAACACCGGGCAUCCUGUAACUAUAACCAGUCCAUUAUCCAUGACCUCUCCUUUAACACUCACUACCAACAGAGGAUUGAGCAUCA
B2: chr12:114680981:114681101:-|CDS|ENSG00000135111|unk|total|mutant (ssRNA)
RNA: GGGAGUUCUACAGUCCGACGAUCUAAAGUGAGAUGUUCUGGGCUGGAUAAAAAAGCCAAAUACAUUUUAUUGAUGGACAUUACCGCUGCUGAUGACUGUCGUUAUAAAUUUCACAAUUCUCGGUGGAUGGUGGCUGGUAAGGCCAACAGAGGAUUGAGCAUCA
B3: chr1:32196777:32196878:+|3pUTR|ENSG00000084652|msi1|FALSE|unique (ssRNA)
RNA: GGGAGUUCUACAGUCCGACGAUCUUUGAAGCUAGUUCAUUGUCCUGCAGGUCCCUUCAUCUUCCAUACCUAGCCCACUCUUUUAGCCCUUACCUUAAAUCUCUCAGAUAAGUUGGUUCACAAAGAAUGUUAAGUACUGAAUCACAACAGAGGAUUGAGCAUCA
B4: chr3:52829118:52829279:-|CDS|ENSG00000055955|control|control|control (ssRNA)
RNA: GGGAGUUCUACAGUCCGACGAUCGUGGACUCCAGGGUCUCAUCCCGAUUUGCCCACACGGUCGUCACCAGCCGAGUGGUCAAUAGGGCCAAUACUGUGCAGGAGGCCACCUUCCAGAUGGAGCUGCCCAAGAAAGCCUUCAUCCAACAGAGGAUUGAGCAUCA
B5: chr7:139306712:139306813:+|3pUTR|ENSG00000157741|msi1|FALSE|bound_elsewhere (ssRNA)
RNA: GGGAGUUCUACAGUCCGACGAUCAUCUGGGGCUUGCCCUUGGAUUUCACUUGUUAAACACCCUCAAACUUAAAAGAAGAAAAUAGAUCUCCAGCUGGUGAAAAUUUUGUGCCCCAAAUAAUAUAUUAAUCCAAGUCUACCAAGCAACAGAGGAUUGAGCAUCA
B6: chr3:15254852:15254953:-|3pUTR|ENSG00000131370|msi1|total|mutant (ssRNA)
RNA: GGGAGUUCUACAGUCCGACGAUCAAACUGUUAAUUCUGUCACAGCCUGUAUAUUUCCGUCAUUUGUAAAUCUCUUCAUACAACCGUGACUUCUUUUUUGACUGAUACAGUAUCUUAAUUACAAGGUUAUUUUGUACUUGUCUUCAACAGAGGAUUGAGCAUCA
B7: chr1:16399343:16399521:-|CDS|ENSG00000187144|control|control|control (ssRNA)
RNA: GGGAGUUCUACAGUCCGACGAUCGCUCUGCCCACAGCUGGACAAGAAGAUGGUCCGUAGGCAGCCGAGCAACCACUAUGCACUAGACCAGUGCACACCCCCUGGCCUGGAUCCUGACAUCCGCAGCCCCUUCUUCCAGUCAGGCAACAGAGGAUUGAGCAUCA
B8: chr6:107870184:107870285:-|3pUTR|ENSG00000025796|msi1|total|mutant (ssRNA)
RNA: GGGAGUUCUACAGUCCGACGAUCUAAUAUUUCCUAUAAAAGGGUGAAAGCAGUUUCUUUCUCUAUAACCUCAAUCACCAGUUCCGUGAGAGCCUUUCUUGGCAGGCAGGAGGCAGUGUCACUGAGGAUUUUUUUCAUUUACUUCAACAGAGGAUUGAGCAUCA
B9: chr7:41961162:41961264:-|3pUTR|ENSG00000106571|unk|total|mutant (ssRNA)
RNA: GGGAGUUCUACAGUCCGACGAUCCCCUUGUGUAUCCUGCAGACAUGUAAAAUAAAAUACAAGUUCAUUUUUUUCACCUUUUUCCGAUUUUUUUAAAAAAUAAAAUGUGUAAUCCUUUUUUUAAAAGAAACACAUGUAAAUACACAACAGAGGAUUGAGCAUCA
B10: chr1:198253062:198253183:+|CDS|ENSG00000151414|unk|FALSE|unique (ssRNA)
RNA: GGGAGUUCUACAGUCCGACGAUCAUGGGCUAUAAUACAUUAGCCAACUUUCGAAUAGAAAAGAAAAUUGGUCGCGGACAAUUUAGUGAAGUUUAUAGAGCAGCCUGUCUCUUGGAUGGAGUACCAGUAGCUUUAAAAAAAGUGCAACAGAGGAUUGAGCAUCA
B11: ENSG00000198589:be:win_4951|CDS|ENSG00000198589|bound_else_gene|NA|bound_elsewhere_windowed (ssRNA)
RNA: GGGAGUUCUACAGUCCGACGAUCUCUCCGGAAACCAAAAAUGAUAGAGGAAAUGACUUGGACACUAAGGCUACACCGUCAGUUUCAGUUUCAAAAAACGUCAAUGUGAAAGACAUUCUCCGAAGCUUGGUUAACAUACCAGCACAACAGAGGAUUGAGCAUCA
B12: chr1:3780741:3780842:-|3pUTR|ENSG00000130764|unk|total|mutant (ssRNA)
RNA: GGGAGUUCUACAGUCCGACGAUCCCAAGCCGCUGGGACUACAGGUGUGUGCCACUAAGCUCAGCUAAUUUUUGUAUUUUCCGCCGAGACGGGGUUUCACCAUUUUGACCAGGAUGGUCUUGAUCUCUUGACCUCAUGAUCUGUCAACAGAGGAUUGAGCAUCA
B13: ENSG00000075711:stop:overlap|stop_codon|ENSG00000075711|stop_codon|NA|stop_codon (ssRNA)
RNA: GGGAGUUCUACAGUCCGACGAUCCAGAAAAAAUAAUGGAAAUAAAGCUCAUUAAAGGUCCUAAAGGUAUGUGGUCUUGGGUUUAGCAUUGCUGGAGGUGUUGGAAAUCAGCAUAUUCCUGGGGAUAAUAGCAUCUAUGUAACCCAACAGAGGAUUGAGCAUCA
B14: chr3:128462549:128463245:-|CDS|ENSG00000179407|control|control|control (ssRNA)
RNA: GGGAGUUCUACAGUCCGACGAUCCGGGAGUUUUUUGGUGGCCUGGACCCUUUCUCCUUUGAGUUCUGGGACAGCCCAUUCAAUAGUGACCGUGGUGGCCGGGGCCAUGGCCUGAGGGGGGCCUUCUCGGCAGGCUUUGGAGAACAACAGAGGAUUGAGCAUCA

Biological target: MSI1 full-length (mouse, UniProt Q61474 1-362)
Experiment: nsRBNS (natural sequence RNA bind-n-seq); RBNS binding buffer (assumed for nsRBNS): 25 mM Tris pH 7.5, 150 mM KCl, 3 mM MgCl2, 0.01% Triton X-100, 500 ug/ml BSA, 20 U/ml SUPERase-In, 4 C; UNK is unkempt and MSI1 is Musashi-1; names of the RNAs are library labels; protein concentration not given here; high values mean tight binding

Sequence of UniProt Q61474 (Q61474 whole entry): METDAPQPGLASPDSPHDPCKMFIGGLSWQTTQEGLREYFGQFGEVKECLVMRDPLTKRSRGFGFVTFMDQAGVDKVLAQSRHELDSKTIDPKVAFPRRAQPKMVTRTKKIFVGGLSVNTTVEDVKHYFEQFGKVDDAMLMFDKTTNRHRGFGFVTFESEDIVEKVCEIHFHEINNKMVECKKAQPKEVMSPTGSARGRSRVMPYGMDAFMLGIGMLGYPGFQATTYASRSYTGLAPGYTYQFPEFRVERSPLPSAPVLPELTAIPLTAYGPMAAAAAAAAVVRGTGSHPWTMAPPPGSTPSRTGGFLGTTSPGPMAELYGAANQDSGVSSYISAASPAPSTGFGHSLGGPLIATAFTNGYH

Row | Binder | binding signal [enrichment R]
1 | B1 | 0.71
2 | B2 | 0.386
3 | B3 | 1.78
4 | B4 | 0.562
5 | B5 | 2.1
6 | B6 | 0.393
7 | B7 | 0.47
8 | B8 | 0.546
9 | B9 | 0.602
10 | B10 | 1.93
11 | B11 | 0.284
12 | B12 | 0.394
13 | B13 | 2.15
14 | B14 | 0.58
